PubChem BioAssay AID1768 (National Center for Advancing Translational Sciences (NCATS), 2009)
About 620 (0.23%) of roughly 270,000 compounds were called active. Inconclusive results, whose numbers are uncertain, are shown with a selection of clear calls. Calls follow the shape of the dose curve; as a rule, active = well fitted inhibition curve with a large enough effect in the polarisation, with a control signal flat (not every such curve was filed as active); inconclusive = small, poorly fitted or top-dose-only effect, or effect the other way, or a change in a side signal; inactive = no such curve, though single readings can be large or run the other way; the % refers to the polarisation. Potencies of inconclusive entries are doubtful fits and often do not repeat. A note “side channel” means that the fit belongs to a control or component signal, not to the main read-out.

Target: Menin (Homo sapiens) (UniProt O00255)
Test: qHTS Assay for Inhibitors Targeting the Menin-MLL Interaction in MLL Related Leukemias: Competition With Texas Red Labeled MLL-derived Mutant Peptide; as to FP activity change, negative = inhibition: % of control where 0% means no effect
Conditions: fluorescence polarization; FP activity change, negative = inhibition: at 61.6 µM (top of the series)
Potency is read from the fitted curve at half-maximal effect; tags tell the direction and shape of the fitted curve or compound fluorescence and quenching.

UniProt O00255, sequence (O00255 whole entry, looked up): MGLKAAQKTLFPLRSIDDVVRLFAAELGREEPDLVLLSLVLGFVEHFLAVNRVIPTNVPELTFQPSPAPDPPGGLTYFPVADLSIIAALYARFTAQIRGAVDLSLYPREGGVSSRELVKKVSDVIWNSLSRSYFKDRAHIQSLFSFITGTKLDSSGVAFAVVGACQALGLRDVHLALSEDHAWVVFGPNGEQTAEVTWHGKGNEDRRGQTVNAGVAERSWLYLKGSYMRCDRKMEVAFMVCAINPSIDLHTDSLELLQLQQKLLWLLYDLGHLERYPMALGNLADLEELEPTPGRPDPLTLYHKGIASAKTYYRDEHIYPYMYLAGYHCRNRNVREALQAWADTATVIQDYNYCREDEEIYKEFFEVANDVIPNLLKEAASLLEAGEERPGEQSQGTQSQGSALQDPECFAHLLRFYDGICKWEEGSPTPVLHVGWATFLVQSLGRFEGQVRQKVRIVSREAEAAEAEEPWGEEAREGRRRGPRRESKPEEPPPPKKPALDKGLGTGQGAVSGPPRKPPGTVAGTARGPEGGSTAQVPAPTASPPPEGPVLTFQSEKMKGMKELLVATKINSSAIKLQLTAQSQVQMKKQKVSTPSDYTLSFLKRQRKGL

Row | Compound | Potency | FP activity change, negative = inhibition
1 | COc1ccccc1N1CCN(C/C(C)=C/c2ccccc2)CC1 | inconclusive: 12.6 µM [fluorescent, side channel, partial curve] | –
2 | O=C(N/N=C/c1cn(Cc2ccccc2)c2ccccc12)c1cc(O)cc(O)c1 | inconclusive: 10 µM [quencher, side channel, partial curve] | –
3 | CCCCC(=O)Nc1cccc(-c2nc3ncccc3o2)c1 | – | inactive: -6.12%
4 | Cc1ccc(S(=O)(=O)NCC(=O)N(CC(=O)NCc2ccc(F)cc2)CC2CCCO2)cc1 (configuration not stated) | inconclusive: 39.8 µM [inhibitor, single point] | –
5 | COC(=O)C/C=C\[C@@H](C)[C@@H](/C=N\O[C@@H](C)c1cc(-c2c(C)cc(C)cc2C)no1)OC | – | inactive: -11.2% [at 11.7 µM]
6 | CC(C)(C)c1ccc(O)c(N=Cc2cc(Br)ccc2O)c1 | inconclusive: 31.6 µM [quencher, side channel, partial curve] | –
7 | CCOC(=O)c1ccc(NC(=O)CC2S/C(=N/N=C/c3c[nH]c4ccccc34)NC2=O)cc1 (configuration not stated) | inconclusive: 11.2 µM [quencher, partial curve] | –
8 | Cc1oc(-c2ccccc2F)nc1CN1CCC(C(=O)NCCC2=CCCCC2)CC1 | inconclusive: 11.2 µM [fluorescent, side channel, partial curve] | –
9 | O=C(CCc1c[nH]c2ccccc12)N[C@@H](Cc1c[nH]c2ccc(O)cc12)C(=O)O | inconclusive: 35.5 µM [quencher, side channel, partial curve] | –
10 | Cc1cccc(C2(c3cccc(C)c3)CC2C(=O)NCC2CCCO2)c1 (configuration not stated) | inconclusive: 31.6 µM [fluorescent, side channel, single point] | –
11 | COc1cccc(OC)c1-c1nn2c(-c3cc(-c4ccccc4)n[nH]3)nnc2s1 | – | inactive: 8.84%
12 | CCSC1=N/C(=C\c2ccc3c(c2)OCO3)C(=O)S1 | inconclusive: 22.4 µM [quencher, side channel, single point] | –
13 | CC(=O)N(CCC(Cc1ccccc1)c1ccc2c(c1)OCO2)Cc1ccc(Cl)cc1 (configuration not stated) | inconclusive: 11.2 µM [fluorescent, side channel, partial curve] | –
14 | O=C(Cn1c(=O)n(Cc2ccco2)c(=O)c2c3c(sc21)CCCCC3)Nc1ccccc1 | inconclusive: 12.6 µM [quencher, side channel, partial curve] | –
15 | CCN1CCN(CC(O)COC(c2ccccc2)c2ccccc2)CC1 (configuration not stated) | inconclusive: 20 µM [fluorescent, side channel, single point] | –
16 | C#CCOCCOCCOCCNc1nc(N2CCN(C(=O)[C@H]([C@@H](C)CC)n3cc([C@@H](N)CO)nn3)CC2)nc(N2CCN(C(=O)[C@H](Cc3ccc(O)cc3)n3cc([C@@H](N)CC(C)C)nn3)CC2)n1 | inconclusive: 10 µM [fluorescent, side channel, full curve, poor fit] | –
17 | O=C(/C=C/Nc1ccc(F)cc1F)c1cccs1 | inconclusive: 39.8 µM [inhibitor, single point] | –
18 | CCCC(=O)c1cc2c(cc1NC(=O)c1cccs1)OCCO2 | inconclusive: 39.8 µM [inhibitor, single point] | –
19 | COC(=O)c1ccccc1NC(=O)c1nc2nc(C)cc(C)n2n1 | inconclusive: 5.01 µM [inhibitor, full curve] | –

Row | Compound | Potency | FP activity change, negative = inhibition
20 | COc1ccc(-c2cc(C)no2)cc1S(=O)(=O)Nc1cccc(C)c1 | inconclusive: 39.8 µM [quencher, side channel, single point] | –
21 | COc1cccc(NC(=O)COC(=O)c2c3c(nc4ccccc24)CCC(C)C3)c1 (configuration not stated) | inconclusive: 14.1 µM [quencher, side channel, partial curve] | –
22 | C=CCN1C(=O)C2(NNc3ccccc3O2)c2ccccc21 (configuration not stated) | inconclusive: 15.8 µM [quencher, side channel, partial curve] | –
23 | CCOC(=O)c1ccc(N2CCN(C(=O)c3ccccc3)CC2)c(NC(=O)c2ccco2)c1 | inconclusive: 14.1 µM [fluorescent, side channel, partial curve] | –
24 | Cc1ccccc1Oc1cc(NC(=O)Cn2cnc([N+](=O)[O-])c2)cc([N+](=O)[O-])c1 | inconclusive: 12.6 µM [quencher, side channel, partial curve] | –
25 | Cc1ccc(-c2cc(C(F)F)n3ncc(C(=O)NN4CCCCC4)c3n2)cc1 | inconclusive: 5.62 µM [fluorescent, side channel, partial curve] | –
26 | CSc1nsc(/C=C/Nc2ccc(Cl)cc2)c1C#N | inconclusive: 17.8 µM [quencher, side channel, partial curve] | –
27 | CCOc1ccc(CN2CCNC(=O)C2CC(=O)NCCCC2CCCC2)cc1 (configuration not stated) | inconclusive: 12.6 µM [fluorescent, side channel, partial curve] | –
28 | Cc1ccc(C(=O)Nc2ncccc2S(=O)(=O)c2ccccc2)cc1 | inconclusive: 39.8 µM [fluorescent, side channel, partial curve] | –
29 | CCS(=O)(=O)Nc1ccc(-c2ccc(NS(=O)(=O)CC)c(OC)c2)cc1OC | – | inactive: 0.0922%
30 | Nc1ncnc2c1ncn2[C@@H]1O[C@H](C(=O)N2CCN(CC(=O)Nc3cccc4c3CNC4=O)CC2)[C@@H](O)[C@H]1O | – | inactive: 0.349%
31 | COc1ccc(NC(=O)c2cccc(Oc3ccc([N+](=O)[O-])cc3Cl)c2)cc1 | inconclusive: 14.1 µM [quencher, side channel, partial curve] | –
32 | O=C(COc1ccccc1)N1c2ccccc2Sc2ccccc21 | – | inactive: -8.79%
33 | Cc1ccnc(Nc2nc(-c3ccccc3)cs2)c1 | inconclusive: 12.6 µM [quencher, side channel, partial curve] | –
34 | Nc1ccc(NC(=O)c2cccs2)cc1 | inconclusive: 39.8 µM [quencher, side channel, single point] | –
35 | Cc1cc(O)c(NC(=O)c2ccc(C)c([N+](=O)[O-])c2)cc1C | inconclusive: 11.2 µM [quencher, side channel, partial curve] | –
36 | Cc1cn(CC(=O)c2ccccc2)c2ccccc12 | inconclusive: 17.8 µM [inhibitor, partial curve] | –
37 | Cc1cccc2c1nc(-c1ccccc1)n1nnnc21 | inconclusive: 28.2 µM [inhibitor, single point] | –
38 | O=C(CCC(=O)N1CCN(c2cccc(Cl)c2)CC1)N1CCN(c2ccccc2)CC1 | inconclusive: 12.6 µM [inhibitor, partial curve] | –

Row | Compound | Potency | FP activity change, negative = inhibition
39 | O=[N+]([O-])c1cccc(/C([O-])=C(/C(=S)Nc2cccc3ccccc23)[n+]2ccccc2)c1 | inconclusive: 39.8 µM [quencher, side channel, single point] | –
40 | COc1cc([C@H](Cc2ccccc2)NC(C)=O)oc(=O)c1 | inconclusive: 8.91 µM [quencher, side channel, full curve, poor fit] | –
41 | COc1ccccc1NC(=S)NNC(=O)c1c(Cl)c(C)nn1C | inconclusive: 25.1 µM [quencher, side channel, single point] | –
42 | Oc1c(Br)cc(Br)cc1/C=N/Nc1ccc(Cl)nn1 | inconclusive: 7.08 µM [quencher, side channel, partial curve] | –
43 | O=c1[nH]c2ccccc2c2ccccc12 | inconclusive: 11.2 µM [inhibitor, partial curve] | –
44 | COCC(=O)N(Cc1cc2ccc(C)cc2[nH]c1=O)c1ccc(C)cc1C | inconclusive: 20 µM [fluorescent, side channel, partial curve] | –
45 | N#Cc1c(NC(=O)c2ccncc2)sc2c1CCC2 | inconclusive: 39.8 µM [quencher, side channel, single point] | –
46 | CCc1cccc(OCC(O)Cn2c(N3CCCCC3)nc3c2c(=O)[nH]c(=O)n3C)c1 (configuration not stated) | inconclusive: 5.01 µM [fluorescent, side channel, full curve, poor fit] | –
47 | CCOc1cc(CNc2ccc(N(C)C)cc2)cc(Br)c1OCC(=O)NC(C)(C)C | inconclusive: 31.6 µM [fluorescent, side channel, partial curve] | –
48 | O=C(Cn1c(-c2cscn2)nc2ccccc21)Nc1ccc2ccccc2c1 | inconclusive: 17.8 µM [inhibitor, partial curve] | –
49 | CS(=O)(=O)NCCSCc1ccccc1 | – | inactive: -28.3%
50 | COC(=O)c1sc(NC(=S)NNC(=O)c2c(Br)c(C)nn2C)c(C(=O)OC)c1C | inconclusive: 11.2 µM [quencher, side channel, partial curve] | –
51 | N#Cc1c(NC(=S)NC(=O)c2ccccc2)sc2c1CCCC2 | inconclusive: 14.1 µM [quencher, side channel, partial curve] | –
52 | CCOC(=O)C1CCN(S(=O)(=O)c2ccc(OC)c(C(=O)N3CCCCC3)c2)CC1 | – | inactive: -18.3%
53 | Cc1ccc(NC(=O)C2CCCN(C(=O)c3ccc(Cl)cc3)C2)cc1 (configuration not stated) | – | inactive: 0.868%
54 | CCCc1cc2c(cc1NC(=O)c1ccc(Br)cc1)OCO2 | inconclusive: 39.8 µM [inhibitor, single point] | –
55 | O=C(Nc1cccc(C(F)(F)F)c1)/C(=C/c1ccco1)NC(=O)c1cccs1 | inconclusive: 39.8 µM [inhibitor, single point] | –
56 | O=C(O)C(=O)/C(=C\c1cccc(Cl)c1)c1ccc2ccccc2n1 | inconclusive: 22.4 µM [quencher, side channel, partial curve] | –
57 | O=C(CCCCCNc1nc(=S)[nH]c2ccccc12)NCCc1ccc(Cl)cc1 | inconclusive: 10 µM [inhibitor, partial curve, poor fit] | –
